# From paper PMC4336329 (PLoS ONE, 2015)
# About 14,000 (4.5%) of roughly 310,000 compounds showed an effect of 50% or more. The effect is printed as a negative number. The list shows a part of the results.
# Target: human ether-à-go-go-related gene (hERG) potassium channel (human, UniProt Q12809)
# Test: primary screen, population patch clamp on CHO cells stably expressing hERG
# 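Further: peak tail current of the secondary pulse compared with the same well before compound.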
# Chain of human ether-à-go-go-related gene (hERG) potassium channel (Q12809 whole entry, looked up): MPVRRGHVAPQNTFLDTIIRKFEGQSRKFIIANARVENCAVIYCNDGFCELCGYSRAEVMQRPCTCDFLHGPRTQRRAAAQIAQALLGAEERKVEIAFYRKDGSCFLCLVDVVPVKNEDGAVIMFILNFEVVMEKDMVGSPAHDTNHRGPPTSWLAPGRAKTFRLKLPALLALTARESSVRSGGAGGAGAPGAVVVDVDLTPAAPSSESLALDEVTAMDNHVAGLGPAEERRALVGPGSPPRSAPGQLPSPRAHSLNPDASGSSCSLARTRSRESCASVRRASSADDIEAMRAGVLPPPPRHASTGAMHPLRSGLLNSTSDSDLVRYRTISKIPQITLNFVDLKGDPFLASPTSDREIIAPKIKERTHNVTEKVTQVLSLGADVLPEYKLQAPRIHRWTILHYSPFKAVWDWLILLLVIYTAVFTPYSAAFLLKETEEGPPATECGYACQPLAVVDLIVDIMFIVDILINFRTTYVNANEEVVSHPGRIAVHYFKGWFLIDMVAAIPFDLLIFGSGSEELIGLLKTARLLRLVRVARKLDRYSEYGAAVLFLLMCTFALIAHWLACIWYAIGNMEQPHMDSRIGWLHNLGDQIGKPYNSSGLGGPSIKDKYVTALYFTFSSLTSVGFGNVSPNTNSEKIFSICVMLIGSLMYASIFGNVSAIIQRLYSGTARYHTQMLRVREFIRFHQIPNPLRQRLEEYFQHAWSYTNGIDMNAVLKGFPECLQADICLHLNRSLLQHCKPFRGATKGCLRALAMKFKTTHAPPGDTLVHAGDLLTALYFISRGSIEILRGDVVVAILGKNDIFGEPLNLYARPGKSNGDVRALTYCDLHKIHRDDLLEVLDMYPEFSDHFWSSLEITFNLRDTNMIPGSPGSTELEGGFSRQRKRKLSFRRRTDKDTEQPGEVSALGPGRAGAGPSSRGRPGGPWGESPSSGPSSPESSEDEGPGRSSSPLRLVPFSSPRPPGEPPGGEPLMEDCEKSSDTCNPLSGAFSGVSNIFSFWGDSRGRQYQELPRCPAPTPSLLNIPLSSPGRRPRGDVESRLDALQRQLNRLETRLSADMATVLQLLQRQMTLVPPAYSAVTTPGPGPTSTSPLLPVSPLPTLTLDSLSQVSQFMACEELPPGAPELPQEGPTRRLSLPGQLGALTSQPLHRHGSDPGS
row,SMILES,"hERG current change (%, negative = inhibition) at 10uM [%]"
1,O=C(NC1CCCC1)C(c1ccco1)N(C(=O)c1ccco1)c1ccc(F)cc1 (stereo not drawn),2.55
2,O=C(NCc1nnc(SCC(=O)N2CCCCCC2)o1)c1ccco1,13.6
3,CC(C)c1ccc(CNc2ccc3c(c2)ncn3C)cc1,9.16
4,CC1CCCN(C(=O)C2CCN(S(=O)(=O)c3cccc4nsnc34)CC2)C1 (stereo not drawn),-17.9
5,CN(CC(=O)Nc1ccccc1Br)C(=O)CCC1CCCC1,9.57
6,C/C(=N\Nc1nc(-c2cc(C)ccc2C)cs1)c1cc2c(ccc3ccccc32)oc1=O,15.7
7,O=C(/C=C/c1c(F)cccc1Cl)c1ccc(F)cc1,15.2
8,CCN(CC)Cc1c(O)ccc2c(=O)c(Oc3ccccc3OC)c(C)oc12,17.4
9,CCC(C(=O)NC1CCCC1)N(C(=O)Cn1nnc(-c2ccc(C)cc2)n1)C1CCCC1 (stereo not drawn),-5.48
10,CC(=O)Nc1ccc(S(=O)(=O)Nc2nnc(C(C)(C)C)s2)cc1,11.8
11,O=C(NCc1cccs1)C1CCCN1C(=O)NC1CCCCC1 (stereo not drawn),11.6
12,CCC(C)(C)c1ccc(Oc2cccc(C(=O)O)c2)cc1,11.5
13,Cc1ccc(C(=O)N2CCN(S(=O)(=O)c3sc(C(=O)O)c(C)c3C(=O)O)CC2)s1,17.8
14,O=S(=O)(Cc1ccccc1)NCC1CCCN(Cc2ccc3nonc3c2)C1 (stereo not drawn),-51.2
15,Cc1c(N=C2NC(=O)/C(=C/c3cccc([N+](=O)[O-])c3)S2)c(=O)n(-c2ccccc2)n1C,-13.4
16,O=C(Cn1c(CC(=O)N2CCCC2)nc2ccccc21)NCc1ccccc1,-7.45
17,CC(C)(C)OC(=O)N1CCCC1C(=O)N1CCc2ccccc21 (stereo not drawn),14.5
18,CCCCCCNC(=O)c1cn(CC)c2cc(N3CCN(C)CC3)c(F)cc2c1=O,-3.97
19,CCOc1cc(/C=C(\C#N)C(N)=O)ccc1OCc1c(C)no[n+]1[O-],-0.204
20,CC(C)CNC(=O)c1cccc(C(=O)NCC(C)C)c1,-0.427
21,CC(C)Cn1c(N2CCN(C(=O)/C=C/c3ccccc3)CC2)nc2ccccc21,-69.1
22,CC(C(=O)NCc1ccccc1Cl)N1C(=O)c2ccccc2C1=O (stereo not drawn),-12.9
23,CCOC(=O)N1CCN(S(=O)(=O)N2CCCC(C(=O)NC(C)c3ccccc3)C2)CC1 (stereo not drawn),3.52
24,O=C(c1ccc(NS(=O)(=O)c2ccc(F)cc2)cc1)N1CCN(c2ccccc2O)CC1,-4.67
25,CCN(CC)C(=O)c1cn(-c2cccc(OC)c2)c(=O)c2ccccc12,9.66
26,CCCOc1ccc(C(=O)Nc2ccc(N(C)C)cc2)cc1,3.58
27,O=C1C(Nc2ccccc2)=C(NS(=O)(=O)c2ccccc2)C(=O)c2ccccc21,-3.21

row,SMILES,"hERG current change (%, negative = inhibition) at 10uM [%]"
1,COc1ccc(-c2nc(-c3ccncc3)no2)cc1OC,-10.8
2,C=CCn1c(=O)c(C(C)=O)cn(N(C)c2ncc(C(F)(F)F)cc2Cl)c1=O,-2.57
3,Cn1cc(C(=O)NC2CCCCCCC2)c(=O)c2cc(S(=O)(=O)N3CCCC3)ccc21,10.4
4,COCc1nnc(NC(=O)C(C)C)s1,6.69
5,CCNc1nc(NCC)nc(NS(=O)(=O)c2ccc(N)cc2)n1,22.7
6,Cc1cccc(OC(C)C(=O)OCC(=O)Nc2sccc2C(N)=O)c1 (stereo not drawn),-6.98
7,C/C(=N\NC(=O)c1cccc(N/N=C(\C)c2cc(O)ccc2O)c1)c1cc(O)ccc1O,9.41
8,O=C(Nc1ncc([N+](=O)[O-])s1)c1ccco1,17.5
9,Cc1ccc(S(=O)(=O)Nc2nc(C)c(NC(=O)OCCCl)s2)cc1,-6.07
10,COc1cc(NC(=O)c2cc3c(C)nc4ccccc4c3o2)cc(OC)c1OC,0.269
11,O=C(CCN1C(=O)c2ccccc2C1=O)Nc1cccc(S(=O)(=O)NC2=NCCC2)c1,30.4
12,Cc1c(Cl)ccc2c1NC(=O)C21NC(CCC(N)=O)[C@H]2C(=O)N(c3ccc(Cl)cc3)C(=O)[C@H]21 (stereo partly drawn),7.5
13,CCCn1c(C)c(C(=O)OCC)c(O)c(-c2ccccc2)c1=O,19.5
14,CCOc1cccc(C2/C(=C(/O)c3ccc4c(c3)CC(C)O4)C(=O)C(=O)N2Cc2cccnc2)c1 (stereo not drawn),17.9
15,COc1ccccc1NC(=O)C1CCCN(c2cc(C)nc3ncnn23)C1 (stereo not drawn),-20.8
16,O=C(CSc1nc2ccccc2c(=O)n1-c1ccccc1)c1c[nH]c2ccccc12,-3.27
17,CCN(CC)CCNC(=S)Nc1ccc2nc(N3CCN(CC)CC3)cc(C)c2c1,11.2
18,COc1cc2c(cc1OC)CN(c1nc(CN3CCOCC3)nc3sc4c(c13)CCC(C)C4)CC2 (stereo not drawn),-67.5
19,Nc1ccc2nc(-c3ccccc3)sc2c1,23.4
20,O=c1cc(CN2CCN(S(=O)(=O)c3ccccc3)CC2)nc2sccn12,-2.25
21,CN(C)S(=O)(=O)Oc1ccc(Cl)cc1C(=O)Nc1ccc(F)cc1F,-3.01
22,CCC(C)n1ncn(-c2ccc(N3CCN(c4ccc(OC)cc4)CC3)cc2)c1=O (stereo not drawn),-1.99
23,S=C(Nc1ccc(Oc2ccc(NC(=S)NC3CCCCC3)cc2)cc1)NC1CCCCC1,17.6
24,Cc1nc2ccc(NC(=O)/C=C/C(=O)O)cc2nc1C,22.2
25,COc1ccc(N2C(=O)CC(NNC(=O)c3ccc(Br)s3)C2=O)cc1 (stereo not drawn),14.1
26,O=C(Nc1ccccc1Cl)Nc1cccnc1Cl,22.1
27,Cc1ccc(-c2cccc(CN3CCN(C4CCN(C(C)C)CC4)C(CCO)C3)c2)o1 (stereo not drawn),-59.4
